# Source: paper PMC12136788
# The list shows a part of the results.
# B1: chr5:44142225:44142226:-_ENSMUSG00000039753_ENSMUST00000047857|mus_hu|FALSE|FALSE (ssRNA)
# RNA: GGGAGUUCUACAGUCCGACGAUCGCCUGCACCAGUUAUAGUAAGACAACCAGAGAGAUUAAGGUGCUCCAAAUAAGGCAGCCCUCCUCCCAGAGUCAAAACCCUGAGACCAUGGUCUGUGAUCUGAUAACAUCCAGAUAAACUCAACAGAGGAUUGAGCAUCA
# B2: chr7:44244176:44244177:+_ENSG00000106636_ENST00000223369|hu_mus|hu_hu_hu_mus_False|88_108 (ssRNA)
# RNA: GGGAGUUCUACAGUCCGACGAUCACUAUCAUUCCGGACGUAGACAUGGCACAGAUACUCUUGUUCUUUGACAGAAGCUCUGCUGCCUUUCCCCGAGCGUUCCACAAUCAGUUGACUUGUAAAGGUCAUGAAUUCCUGCACACUCAACAGAGGAUUGAGCAUCA
# B3: chr17:62495851:62495852:-_ENSG00000108654_ENST00000581693|hu_mus|motif|central (ssRNA)
# RNA: GGGAGUUCUACAGUCCGACGAUCUCACUGUACAGUUACUUUUGUGAAAACACUGCCUGCAUUUUCUAGUACAAAAAAAACCGGAAAAUUGUUUCAGGAAUGUAGAGAAAUAUCCAACUUAAAUAGCGAAAAAAGUGCACCAUACAACAGAGGAUUGAGCAUCA
# B4: chr3:41266445:41266446:+_ENSG00000168036_ENST00000349496|perfect_dup|motif|central (ssRNA)
# RNA: GGGAGUUCUACAGUCCGACGAUCCAUGGCAGCUCGGACCCUCUGAGCCCUAGUCAUUGCAUACUGCCCGUCAAUAUCAGCGGCUUGCUCUUGCGUGAAGGACUGGGAAAAGCCUUGCUCCCAUUCAUAAAGGACUUGGGAGGUCAACAGAGGAUUGAGCAUCA
# B5: chr2:163839756:163839757:+_ENSMUSG00000018326_ENSMUST00000018470|mus_mus|FALSE|FALSE (ssRNA)
# RNA: GGGAGUUCUACAGUCCGACGAUCUUUCAUUUUUAAGUAGAACACUUUGCUUUCUGCCUGGGUGGCAUUGAGAAUGAGAUAUUUGUCCAACAGCUCCAGCACAUCGUUGCAGAUGUCCUGCAGCUCCGCCUCGAUCUUCUCACGCAACAGAGGAUUGAGCAUCA
# B6: chr12:493273:493274:-_ENSG00000073614_ENST00000399788|hu_hu|FALSE|FALSE (ssRNA)
# RNA: GGGAGUUCUACAGUCCGACGAUCUUUUCUCUCUACCACAGGGAUCUUCAGAGUAGAUCCUUGAAGUUCCCAAAAUUUUGCUAGUUGAUCCAAGAAAUCCAAUCUCACUCUGGUCAUUGCCUCAAGUUCAUUCAGGCGCUGGACCAACAGAGGAUUGAGCAUCA
# B7: 110765465_110765585_907_CDS_ENSG00000174437_ENST00000539276|human|control|control (ssRNA)
# RNA: GGGAGUUCUACAGUCCGACGAUCCCCUCCAUGAACCGGGUCAUUGAAGUGCCCAAUAUUUAUGAUCCAGACUGCAAUGCAAAUAAGGGAGAUGACUUUGGAAAGCUGUUCCCCAAAUUCAUCUAGUUUUUGCUGAAGGGGUGUCAACAGAGGAUUGAGCAUCA
# B8: chr4:99801976:99801977:-_ENSG00000151247_ENST00000280892|hu_mus|FALSE|FALSE (ssRNA)
# RNA: GGGAGUUCUACAGUCCGACGAUCCACAUCUGCGGGUUCUGGGGUGACGUAUACUGUAAUUCUUUGAUUGGGAUAGUGGACACACUAGCAAAAAUUGGGGGUGGGGGAGGAGAAUGAACACAGAAGUACAAGACAAAGGCGAAUCAACAGAGGAUUGAGCAUCA
# B9: chr7:56126341:56126342:+_ENSG00000146731_ENST00000540286|hu_mus|hu_hu_hu_mus_True|8_98 (ssRNA)
# RNA: GGGAGUUCUACAGUCCGACGAUCCAUGUUUCUCCUCUUAGCUCUGCGCAGAGCUACGAUCCCUUCUUUCGCAAGGGCAUCUAAGGAAAAGGGGUCAAUCCCCUUUUGAUUAAUAACGACAAAUCCUUUAUCUGAAUCACCACACAACAGAGGAUUGAGCAUCA
# B10: 36442829_36447374_875_3pUTR_ENSG00000112078_ENST00000373731|human|control|control (ssRNA)
# RNA: GGGAGUUCUACAGUCCGACGAUCAAUAAUCCAGCACUGUGCGAAAUACAGUUGCACUGAUGCCUUCAGCAAUCUCAUACUCUCCCUUCUCAUUGGGCCGAGUGAAGUUGUACUCUCUUCCUGGUCCAAACAUCCUUCCCAGCACAACAGAGGAUUGAGCAUCA
# B11: 24995746_24995866_2247_CDS_ENSG00000133226_ENST00000323848|human|control|control (ssRNA)
# RNA: GGGAGUUCUACAGUCCGACGAUCAGACCCUUUCCUAUGCUUGGAUGAUAAUGAAGGUGAACGUCUCUUGGUGACUGGGGAGCUUCUUUGUUUGGGAGGUGGAGAAUGGGAGACCCGCCGCUUUGGUGGUGGAGAUGGUGAUGCCAACAGAGGAUUGAGCAUCA
# B12: chr10:94110891:94110892:+_ENSG00000198060_ENST00000358935|hu_hu|FALSE|FALSE (ssRNA)
# RNA: GGGAGUUCUACAGUCCGACGAUCUUCUGGAUAAUUCAGAAUUUUGCGGUGUGCCUGUCGUAAAUAUUGCUGCUGUUUGAAGUAAACUUUAAAUGCUCCUUUUAUGGCAACAAACGCAAUUCCACCCAAGAUUGUCCUUUGUAACAACAGAGGAUUGAGCAUCA
# B13: chr4:34756745:34756746:-_ENSMUSG00000039967_ENSMUST00000047950|mus_mus|motif|central (ssRNA)
# RNA: GGGAGUUCUACAGUCCGACGAUCUAUAUUUGGACUUAGGACACUUUCCACUGAGGGUAACAAUGGAGCUGAUACACUUGCGGAAUGAGCUGGGAAAAUGGAAGGCGAGACAUGCUGCACCUGGGCUGAACAGGCAGGGUUCCCCAACAGAGGAUUGAGCAUCA
# B14: chr4:76721835:76721836:+_ENSG00000138768_ENST00000264904|hu_mus|hu_hu_hu_mus_True|78_88 (ssRNA)
# RNA: GGGAGUUCUACAGUCCGACGAUCGUUUGGCUGGGGUUUCUGAGACGUCUGGAAUACAACUCAUGUUUUGCUAAUAAAUCCUAGUUUCUCUAUGAAAUUCUCUUUGCCAAUCCUCUUCUCUAUUAGUUGCUUUAGUUUCUCUUUCAACAGAGGAUUGAGCAUCA
# B15: chr8:104447970:104447971:+_ENSG00000164934_ENST00000297579|hu_hu|hu_hu_hu_mus_False|1_8 (ssRNA)
# RNA: GGGAGUUCUACAGUCCGACGAUCAUACACUUCCCUGCUUCGGCUCUUGUCCACAGGAAAGAUUCUAAUAGACUUAUCAAAGCUGGCAGACACAAAUUCCUUCCCAGUGGGAGAGUAGUCCACAUCAAGCACUGCAGAUACAUGCAACAGAGGAUUGAGCAUCA
# B16: 50198208_50199318_3837_ncRNA_ENSMUSG00000007850_ENSMUST00000123371|mouse|control|control (ssRNA)
# RNA: GGGAGUUCUACAGUCCGACGAUCCCAUUACUGUAGUAGCUGCUGUUCACUGCUCCUUGGCUACCUAUGCAAUGUUUGAUUGAAAAUCACUGGAGUUUUCCUGUAAAACUUGGUCAUAUCCGCUCAUGCUGCUCUGGCCACCGUCAACAGAGGAUUGAGCAUCA
# B17: 49307371_49344221_426_3pUTR_ENSMUSG00000069495_ENSMUST00000092123|mouse|control|control (ssRNA)
# RNA: GGGAGUUCUACAGUCCGACGAUCGUAGGUGAUGUUCCGAUUCCUCCUCCUUCUCCAUCCCGGUGGGCAUCUGGGGCACGGCCCGGUUGAUGGAGACGCAGUCGUUGAGAUCAGGCAUGUCCUUGCCGCGGUAGAUGGGCAGCGCAACAGAGGAUUGAGCAUCA
# B18: chr2:25965407:25965408:-_ENSG00000143970_ENST00000336112|hu_hu|FALSE|FALSE (ssRNA)
# RNA: GGGAGUUCUACAGUCCGACGAUCCUGUGCUGCCUGAAUUAAAUCUCUGGCUAGGGUCUUUUCAUCAAAUGUUUGGCCUCUAGUGAACAGGUAAUUCUCCUUACUUAAAGUGGUUUGCUCAUUCAAUGGUAUCUCAGCCUUCACCAACAGAGGAUUGAGCAUCA
# B19: chr16:84831616:84831617:-_ENSMUSG00000022890_ENSMUST00000023608|mus_hu|FALSE|FALSE (ssRNA)
# RNA: GGGAGUUCUACAGUCCGACGAUCUCCUCCAGAUGUCUGUCGCUUAGAUUUGUAUUCUCUAAUCUUGUCCACAAAGAGUUUCUGUAUAGGAUCAAGUUCCUUAUUAAAUGCCACUGCUGUAACACCAAUGUUCCUCCGCAAAUGCAACAGAGGAUUGAGCAUCA
# B20: chr14:78183846:78183847:+_ENSG00000119705_ENST00000557342|hu_hu|hu_hu_hu_mus_False|68_68 (ssRNA)
# RNA: GGGAGUUCUACAGUCCGACGAUCUCUCAGAAAUCUUUCUUCAUCAGAUGUUUGAGCUCCGUGCAAAAGUUUUGGCCUUUGAGCUUGAACGUGGAUCUAUGGGAGGGAAAGCACUGUCAGAAAAGGUAAUUUUUUUUUUAAAGACAACAGAGGAUUGAGCAUCA
# B21: chr2:73467608:73467609:+_ENSG00000135624_ENST00000258091|hu_hu|FALSE|FALSE (ssRNA)
# RNA: GGGAGUUCUACAGUCCGACGAUCAUCUUGGGAUUUGGCAAUGUCUACCAAAGUCUUUGCUGCAGGAUGGACAACAUCAAGAAGUUUCAGAAUUGUGGCCCCAUCAUUAGAAAUUGUUGCUUUGCCUCUGCCAUCUACAAUAAGCAACAGAGGAUUGAGCAUCA
# B22: chrX:154448470:154448471:+_ENSG00000155959_ENST00000286428|hu_hu|motif|central (ssRNA)
# RNA: GGGAGUUCUACAGUCCGACGAUCAUCCAGCUUCUUUAAUACUGUAUCUGCAGUCUCAUUCCCAGGCUGUUUCAUGAAGGAAUCGGCAUCUUCCACAAACACGGCCUCAGGAAUCCCCAGGUGGAGCCGCCGCCCAUUCCCUGUCAACAGAGGAUUGAGCAUCA
# Biological target: T1, UNK ZnF1-3 (human, UniProt Q9C0B0 31-174)
# T1 sequence: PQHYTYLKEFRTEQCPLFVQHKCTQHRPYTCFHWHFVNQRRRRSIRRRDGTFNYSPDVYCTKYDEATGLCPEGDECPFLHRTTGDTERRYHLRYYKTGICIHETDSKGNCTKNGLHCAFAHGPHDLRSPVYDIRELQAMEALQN
# Assay: nsRBNS (natural sequence RNA bind-n-seq); RBNS binding buffer (assumed for nsRBNS): 25 mM Tris pH 7.5, 150 mM KCl, 3 mM MgCl2, 0.01% Triton X-100, 500 ug/ml BSA, 20 U/ml SUPERase-In, 4 C; UNK is unkempt and MSI1 is Musashi-1; names of the RNAs are library labels; protein concentration not given here; high values mean tight binding
row,Binder,binding signal [enrichment R]
1,B1,0.866
2,B2,0.556
3,B3,0.963
4,B4,0.485
5,B5,0.644
6,B6,0.887
7,B7,0.981
8,B8,2.06
9,B9,0.798
10,B10,0.758
11,B11,1.8
12,B12,0.845
13,B13,1.97
14,B14,0.454
15,B15,1.12
16,B16,0.566
17,B17,0.756
18,B18,0.591
19,B19,0.965
20,B20,1.49
21,B21,1.36
22,B22,0.795
